Read counts are not given, so values of variants with three or more changes are uncertain.
B1: LINE1-full (parent)
chain: UACGUAGGUGGUUUUCCCCUGAUAGUGCUAAGGGGGCCUGGAAGUUUGGACUGGGCAGAGCUCAACACAGCGUGGCAAAGUGGCUGUGGCUAGACUGCCUCUCUGGAUUCCUCGUCACUCAGCAGGGCAUCUCUGAGAGAAAUGCC

Variants of: B1
Test: self-cleavage, relative activity (ratio to wild type); higher = more cleavage; in vitro, sequencing; the parent is a self-cleaving ribozyme

Row | Variant | self-cleavage
1 | U13C U73A U96C A141G A142G | 0.23
2 | U13C C28U A42G A57G A140U | 0.68
3 | U13C A24G U26C A79G U85A C123A | 0.29
4 | U13C A59G U85C U104A | 0.28
5 | U13A A64G A65G | 0
6 | U13C G88A A141G | 0.1
7 | U13C C56U A79C A138G | 0.18
8 | U13C U15C U115C | 0.94
9 | U13A C19U G32C U47C G93A C95U A136G A142G | 0.06
10 | U13C A50G U91A | 0.92
11 | U13C U15C U52C | 0.88
12 | U13A U20C A57G | 1.09
13 | U13A U47C A140G | 0
14 | U13C U45A A124U | 0.76
15 | U13C A124G G125U | 1.73
16 | U13A G82A C99U U108C | 0.71
17 | U13C U47C U100C | 1.84
18 | U13C U47A U52A A136G A141G | 1.29
19 | U13C G33A U81A G122A | 1.39
20 | U13C A69G U109C C145U | 0.15
21 | U13C A59G U102C A129U | 0

Row | Variant | self-cleavage
22 | U13A U15C A65G U104C A136U | 0
23 | U13C C56U U102C C145A | 0.07
24 | U13C A59G U85C A121G | 0
25 | U13C U20G U109C C118U A140G | 0.31
26 | U13C A94G U100C G139A | 0.48
27 | U13A A69U C120U | 0.06
28 | U13C U20A C71A U73C G88A U108C | 0.04
29 | U13C U62G A77G U87A A138G | 0.22
30 | U13C A22G G74A U119C | 0.79
31 | U13C U23C A57U G72A U81G C99U A117C A138G A141G | 0.09
32 | U13C C56A U85C C146U | 0.19
33 | U13C U15C U109C | 1.2
34 | U13C U14A U91C | 0.16
35 | U13A U15C A69G U73C | 1.19
36 | U13A G54A U134C | 0.57
37 | U13C C99U U119C A140G | 0.95
38 | U13C G54U A129G U130C U132C | 1.05
39 | U13C U47A C71U | 0.59
40 | U13C U52A A65U A77G | 0.35
41 | U13A U39A U73A A138G A140G | 1.21
42 | U13C U62C U130A | 0

Row | Variant | self-cleavage
43 | U13C U23C C128U | 1.43
44 | U13A A64U A124C | 0.42
45 | U13C A22G A77G | 1.48
46 | U13A U15C A30G G33U A78G U119C | 0.97
47 | U13A U39C A79G A107G A142G | 0.48
48 | U13A U20C U26C A42G C71U U96C G97A | 0.05
49 | U13C U14C U23C C113U | 1.53
50 | U13C A42G U81G | 1.14
51 | U13C A30G A50G | 0.3
52 | U13C U29A A43G U108C | 1.11
53 | U13A A65G C71U C146U | 0.06
54 | U13C U20C U115A U119C | 2.3
55 | U13C U45C U109A A124G | 0.87
56 | U13C A59G U85C U109A G144A | 0.79
57 | U13C C19G A31U C37U U87C | 0.31
58 | U13C A124G U132C | 1.18
59 | U13C A78U U108C A138G | 2.04
60 | U13C A77G A94G | 0.37
61 | U13C A24G U87A | 0.07
62 | U13A A57U A64G | 0.1
63 | U13C G36A U119A | 0.8

Row | Variant | self-cleavage
64 | U13C A69U G89A U119A | 0.04
65 | U13C U39C A59U | 0.66
66 | U13C A42G U115C A140G | 0.61
67 | U13C U46A A136G | 1.45
68 | U13C G27A U47G A92U | 0.26
69 | U13C A22G U104A U108C | 0.88
70 | U13C A138G U143C | 1.16
71 | U13C U29A G44U U134C | 0.92
72 | U13C A50G A140G | 0.69
73 | U13C U14C A31G A141G | 1.58
74 | U13C U52A A79G U134C | 0
75 | U13C A42G A94U | 0.37
76 | U13C U46A U81A | 2.29
77 | U13C A31U U102C | 0.7
78 | U13C U26C U52A U102C A136G | 0.77
79 | U13C U39C A67U U85A | 0.12
80 | U13A C98U U102C U115A U132A | 0.26
81 | U13C A94U U115C | 0.66
82 | U13A C84U U109C | 0.1
83 | U13C U23C A69U | 0
